In PMC4336329 (PLoS ONE, 2015):
Screen size: about 310,000 compounds; about 14,000 (4.5%) showed an effect of 50% or more. Effects have a minus sign here. The list shows a part of the results.

target: human ether-à-go-go-related gene (hERG) potassium channel (human, UniProt Q12809); experiment: primary screen, population patch clamp on CHO cells stably expressing hERG
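Further: peak tail current of the secondary pulse compared with the same well before compound.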

human ether-à-go-go-related gene (hERG) potassium channel, sequence (Q12809 whole entry, looked up): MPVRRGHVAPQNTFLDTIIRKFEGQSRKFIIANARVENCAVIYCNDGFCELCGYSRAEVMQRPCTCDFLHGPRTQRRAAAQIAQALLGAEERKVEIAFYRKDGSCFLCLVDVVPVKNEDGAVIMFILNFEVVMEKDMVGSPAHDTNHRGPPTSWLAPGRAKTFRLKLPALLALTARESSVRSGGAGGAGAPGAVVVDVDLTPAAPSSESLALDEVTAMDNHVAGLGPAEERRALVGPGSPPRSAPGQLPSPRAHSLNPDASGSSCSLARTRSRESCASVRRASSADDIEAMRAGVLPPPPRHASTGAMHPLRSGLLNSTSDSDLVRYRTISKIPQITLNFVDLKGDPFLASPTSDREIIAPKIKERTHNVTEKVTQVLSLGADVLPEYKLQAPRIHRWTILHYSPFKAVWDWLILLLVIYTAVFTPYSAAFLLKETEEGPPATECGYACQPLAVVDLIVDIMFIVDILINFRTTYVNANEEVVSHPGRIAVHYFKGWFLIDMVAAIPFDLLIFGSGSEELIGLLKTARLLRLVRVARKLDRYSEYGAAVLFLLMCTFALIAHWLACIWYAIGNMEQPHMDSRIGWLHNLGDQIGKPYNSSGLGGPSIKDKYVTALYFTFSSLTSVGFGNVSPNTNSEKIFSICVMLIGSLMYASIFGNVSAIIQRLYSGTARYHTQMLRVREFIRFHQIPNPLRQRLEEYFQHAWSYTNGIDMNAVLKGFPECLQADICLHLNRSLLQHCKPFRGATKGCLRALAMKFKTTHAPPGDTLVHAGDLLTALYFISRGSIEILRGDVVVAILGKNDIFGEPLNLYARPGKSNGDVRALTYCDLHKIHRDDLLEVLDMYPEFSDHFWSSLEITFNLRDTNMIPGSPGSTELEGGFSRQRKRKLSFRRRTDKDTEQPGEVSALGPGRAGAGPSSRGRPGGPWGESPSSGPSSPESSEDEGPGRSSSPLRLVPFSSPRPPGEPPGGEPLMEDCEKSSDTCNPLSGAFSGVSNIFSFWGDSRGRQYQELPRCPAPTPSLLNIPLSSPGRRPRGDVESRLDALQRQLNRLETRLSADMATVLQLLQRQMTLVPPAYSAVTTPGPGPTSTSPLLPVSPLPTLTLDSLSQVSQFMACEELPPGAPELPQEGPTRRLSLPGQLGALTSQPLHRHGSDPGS

| SMILES | hERG current change (%, negative = inhibition) at 10uM [%] |
| --- | --- |
| Cc1cccc(C(=O)OCC(=O)NCCCc2ccccc2)c1O | 9.15 |
| COc1ccc(NC(=O)c2cn(CCC#N)nc2-c2ccc(OC)c(OC)c2)cc1 | -1.61 |
| CC(=O)Nc1ccc(NC(=O)C(C)OC(=O)/C=C/c2cccs2)cc1 (centres unmarked) | -31.7 |
| COc1ccccc1-c1nnc2sc(-c3ccc(N(C)C)cc3)nn12 | -11 |
| CC(C)(Oc1ccc(Cl)cc1)C(=O)NNC(=O)c1ccc(Br)o1 | -20.1 |
| O=C(CCn1c(=S)oc2ccccc21)Nc1cccc(O)c1 | 21.2 |
| C=C(C)CN1CCN(S(=O)(=O)c2ccc(C)c(N(C)S(=O)(=O)c3ccc(C)cc3)c2C)CC1 | -2.33 |
| O=C(Nc1ccc(O)c(C(=O)O)c1)c1ccc2c(c1)C(=O)N(CC1CCCO1)C2=O (centres unmarked) | 6.21 |
| O=C(CSc1nnc2c(Cl)cc(C(F)(F)F)cn12)N(Cc1ccccc1)Cc1ccccc1 | -28.6 |
| Nn1c(Nc2ccc(Cl)cc2)nncc1=O | 4.22 |
| Cc1ccc(O)c(C(=O)/C=C/c2ccc3c(c2)OCCO3)c1 | 6.81 |
| CCOC(=O)C1CCCCN1Cc1ccc(F)c(Br)c1 (centres unmarked) | 0.154 |
| Cc1ccc(-n2c(=O)c3c4c(sc3n3c(=S)[nH]nc23)CCC4)cc1 | 21.4 |
| CN(CCOCCOc1ccc2ccccc2c1)Cc1ccccc1 | -40.2 |
| O=[N+]([O-])c1cccc(/C(=N/N=C/c2ccccc2Br)C23CN4CN(CN(C4)C2)C3)c1 | -4.07 |
| COc1ccc(C(=O)c2sc3nc(-c4ccccc4)ccc3c2N)cc1OC | 18.1 |
| CC(=O)Nc1ccccc1OCC(=O)N(Cc1ccccc1)C(C)C | 1.48 |
| CN(CCc1ccccn1)C(=O)c1cccnc1Oc1ccccc1 | 11.3 |
| CN(Cc1ccccc1)C1CCCN(C(=O)COc2ccccc2Cl)C1 (centres unmarked) | -40.7 |
| CCOc1cc(NC(=S)NCCCN2CCOCC2)c(OCC)cc1NC(=O)C(C)C | 12.5 |
| COc1ccc(N2CCN(C(c3ccccc3)c3nnnn3Cc3ccc(F)cc3)CC2)cc1 (centres unmarked) | 0.111 |
| N#Cc1ccc(CN2CCN(C(=O)Cn3nc(C(N)=O)c4ccccc4c3=O)CC2)cc1 | -70 |

| SMILES | hERG current change (%, negative = inhibition) at 10uM [%] |
| --- | --- |
| O=C(CCn1c(=O)[nH]c2ccccc2c1=O)NCCCN1CCN(c2cccc(Cl)c2)CC1 | -65.4 |
| CC(OC(=O)Cn1nnc2ccccc21)C(=O)NC1CCCC1 (centres unmarked) | 10 |
| COc1ccccc1N1CC(C(=O)Nc2nnc(SCC(=O)N3CCCC3)s2)CC1=O (centres unmarked) | 2.97 |
| CCOC(=O)NC1(C(F)(F)F)NC(=O)N(c2cccc(C(F)(F)F)c2)C1=O (centres unmarked) | 5.01 |
| O=C(O)c1ccccc1N=Nc1c(O)[nH]c(=O)[nH]c1=O | 11.5 |
| Cc1ccsc1C(=O)C1CCCN(Cc2cnc(N3CCCC3)s2)C1 (centres unmarked) | -15.3 |
| COc1ccc(CNCc2c(O)c(Cl)cc3c(C)c(C)c(=O)oc23)c(OC)c1.Cl | -3.6 |
| CCOC(=O)COn1c(=O)c(-c2ccc(OC)cc2)[n+]([O-])c2ccccc21 | -1.13 |
| COc1cccc(C2NC(C)(C(=O)O)C3C(=O)N(C(C)C)C(=O)C23)c1O (centres unmarked) | -3.02 |
| COc1cc([N+](=O)[O-])ccc1NC(=O)CCCOc1cccc(C)c1 | -3.49 |
| O=[N+]([O-])c1ccc(SCc2ccco2)cc1N1CCOCC1 | -20.3 |
| O=C(COC(=O)c1cc(NS(=O)(=O)c2cccs2)ccc1O)Nc1ccc(F)c(F)c1F | 4.87 |
| CCOC(=O)C1CCN(C(=O)c2ccccc2N(C)S(C)(=O)=O)CC1 | -8.52 |
| O=C(COC(=O)C1CCC(=O)N1)Nc1ccc(Oc2ccccc2)cc1 (centres unmarked) | -0.66 |
| O=C(Cn1cncn1)N/N=C/c1ccccc1Cl | 16.8 |
| CCOC(=O)c1ccccc1NC(=O)c1c(O)[nH]c(=O)[nH]c1=O | 6.6 |
| CC(C)C[C@H]1CN=C(Nc2ccccc2)N1CC1CCCC1 | -24 |
| COc1ccccc1N1CCN(C(=O)c2cc(N3C(=O)C4C5CCC(C5)C4C3=O)ccc2Cl)CC1 (centres unmarked) | -4.13 |
| COc1ccc(N=Cc2c(O)c3ccccc3oc2=O)cc1 | 16.6 |
| CN1C(=O)c2ccccc2Sc2ccc(NC(=O)NC3CC3)cc21 | -11 |
| Cc1ccccc1NC(=O)Cn1cnc2c(oc3nc4c(cc32)CCCC4)c1=O | -9.01 |
| CC(C)Oc1ccccc1/C=N/NC(=O)C1CCCC1 | 12.2 |

| SMILES | hERG current change (%, negative = inhibition) at 10uM [%] |
| --- | --- |
| CN1CCN(C(=O)c2cc(=O)c3cc(Cl)ccc3o2)CC1 | -28.1 |
| COc1ccc(C(=O)NC2CC2)cc1OC1CCN(C(C)CSC)CC1 (centres unmarked) | -75.4 |
| CCc1noc(C)c1C(=O)N1CCN(c2cccc(C)c2C)CC1 | -32.3 |
| CC1CCCN(c2ccc(C(=O)NCCc3ccccc3)cn2)C1 (centres unmarked) | -19.5 |
| CC(=O)Nc1cccc(OCC(=O)NS(=O)(=O)c2ccc(Cl)cc2)c1 | 3.08 |
| CN(C)C(C)(C)C#CCC(c1ccccc1)c1ccccc1.Cl | -55.9 |
| Cc1ccc(NC(=O)C2CCN(S(=O)(=O)c3ccc4c(c3)CCCC(=O)N4)CC2)c(Br)c1 | -5.9 |
| Cc1ccccc1NC(=O)COc1ccc(S(=O)(=O)N2CCCC2)cc1C | 16.5 |
| O=C(COc1ccc([N+](=O)[O-])cc1)Nc1ccccc1C(=O)NC1CC1 | -5.6 |
| O=C(CSc1nnc(SCc2cccc3ccccc23)s1)N=Nc1c(O)[nH]c2ccccc12 | 7.13 |
| CCn1c(SCC(=O)c2ccc(O)c(O)c2)nnc1-c1ccccc1OC | -6.41 |
| O=C(CSc1nnc(COc2ccccc2Cl)o1)NC(=O)NC1CCCC1 | -8.92 |
| COc1ccc(C(=O)CN2C(=O)NC(C)(c3ccccc3)C2=O)cc1OC (centres unmarked) | -5.63 |
| CCOC(=O)CCCNC(=O)CN1C(=O)NC(CCc2ccccc2)C1=O (centres unmarked) | 0.531 |
| CCCOc1ccc(CCC(=O)N/N=C/c2ccncc2)cc1 | -11.5 |
| CCOC(=O)C1CCN(C(=O)CN(c2ccc(Oc3ccccc3)cc2)S(C)(=O)=O)CC1 | -33.6 |
| COC(=O)c1ccccc1NC(=O)CN1CCN(C(=O)c2ccco2)CC1 | -51.6 |
| COC(C(=O)Nc1ccc(Br)cc1F)c1ccccc1 (centres unmarked) | 16.5 |
| CC1CCN(c2nnc(NC(=O)Cn3c(=O)oc4ccccc43)s2)CC1 | 14.9 |
| CCOc1ccc(NC(=O)c2ccc(N3CC4CC(C3)c3cccc(=O)n3C4)c(NC(=O)c3cccnc3)c2)cc1 (centres unmarked) | -14.9 |
| Cc1cccc(NC(=O)NNC(=O)COc2ccc3ccccc3c2)c1 | 26.5 |
| Cc1cc(NS(=O)(=O)c2ccc(NC(=O)C(CC(C)C)N3C(=O)c4ccccc4C3=O)cc2)nc(C)n1 (centres unmarked) | 32.8 |

| SMILES | hERG current change (%, negative = inhibition) at 10uM [%] |
| --- | --- |
| O=c1[nH]c(C2CCN(S(=O)(=O)/C=C/c3ccccc3)CC2)nc2c1nnn2Cc1ccc(F)cc1 | -19.3 |
| CCOCCn1c(C)c(C(=O)OCC)c2cc(O)c3ccccc3c21 | 16.9 |
| COc1cc(OC)cc(N(C(=O)c2snc(C(N)=O)c2N)C(C(=O)NCC2CCCO2)c2ccc(C)o2)c1 (centres unmarked) | -3.46 |
| OCC1CCCN1C(=S)Nc1ccccc1 (centres unmarked) | 3.84 |
| O=C(Nc1nnc(SCC(=O)N2CCOCC2)s1)C1CC(=O)N(c2ccc(F)cc2)C1 (centres unmarked) | 15 |
| CCN(CC)C(=O)C(Cc1ccccc1)N1C(=O)c2ccccc2C1=O (centres unmarked) | 1.31 |
| COc1cc(-c2cc(-c3ccc(N)cc3)[nH]c(=O)c2C#N)cc(OC)c1OC | 9.13 |
| COCCSc1ccccc1C(=O)Nc1ccc2c(c1)OCO2 | 6.82 |
| CC(C)[C@H](NC(=O)[C@@H]1CSC2c3ccccc3C(=O)N21)C(=O)NCc1ccncc1 (some centres unmarked) | 14.4 |
| Cc1ccc(NC(=O)CNCc2cccs2)cc1Br.Cl | 5.32 |
| O=C(O)c1cc2c(ccc3ccccc32)oc1=O | -3.94 |
| CCN(CC(=O)NCc1cccs1)C(=O)c1ccc(-c2ccccc2F)o1 | -71.6 |
| COCCCn1c(N)c(C(=O)OC(C)COC)c2nc3ccccc3nc21 (centres unmarked) | 0.737 |
| Cc1ccc(C(=O)CCC(=O)Nc2ccc(C)cn2)cc1 | 7.98 |
| COc1ccc(C(=O)NCCc2c[nH]c3ccccc23)cc1S(=O)(=O)N1CCOCC1 | -9.63 |
| Cc1cc(C)n(C(=O)Cn2nc(C)c(Br)c2C)n1 | 14 |
| C=CCSc1ccsc1C(=O)O | -5.27 |
| Cc1cc(NC(=O)COc2ccc([N+](=O)[O-])cc2)no1 | -4.62 |
| CSc1sc(-c2ccnc(=S)[nH]2)c(-c2ccccc2)c1C#N | 4.98 |
| C=C(C)CSc1nnc(CCNC(=O)OC(C)(C)C)o1 | -4.62 |
